# The campaign covered roughly 310,000 compounds. About 11,000 (3.5%) were called active. Inconclusive means that the source gave no clear call. Such entries were picked first, then a sample of the others. Calls follow the shape of the dose curve; as a rule, active = well fitted inhibition curve with a large enough effect; inconclusive = small, poorly fitted or top-dose-only effect, or effect the other way; inactive = flat fitted curve, though single readings scatter. No potency is given beside an inconclusive call; the fits are too rough.
# Test: VP16 counterscreen qHTS for inhibitors of ROR gamma transcriptional activity;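 also: Gal4-VP16 expression switched on by copper sulfate through the metallothionein promoter; nearly all actives have a fitted effect of over 50% in size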
# Settings: Drosophila S2 Gal4-VP16 UAS-luciferase, luminescence, 20 h; activity, negative = inhibition: at 53.6 µM (top of the series)
# % is scaled to controls: 0 for no effect and ±100 for the full control effect; potency is read from the fitted curve at half-maximal effect; tags tell the direction and shape of the fitted curve.
Structure (SMILES),Potency,"activity, negative = inhibition"
CCOc1ccc(-c2nc(CSCC(=O)NCc3ccco3)c(C)o2)cc1,active: 25.1 µM,
COc1cccc(Cn2cccc(NC(=O)Nc3ccccc3C)c2=O)c1,"inconclusive [inhibitor, single point]",
CCOC(=O)c1sc(NC(=O)Nc2ccccc2)cc1C,active: 2.51 µM,
O=C(NNC(=S)Nc1ccc(Cl)c(Cl)c1)c1cccc([N+](=O)[O-])c1,inactive,
Cc1ccsc1C(=O)OCC(=O)N1CCN(C(=O)c2ccco2)CC1,"inconclusive [activator, full curve, poor fit]",
O=C(Nc1cccc(Br)c1)c1ccc(Cl)c(S(=O)(=O)N2CCOCC2)c1,inactive,
CCn1ncc(/C=C/C(=O)c2ccccc2)c1C,"inconclusive [inhibitor, single point]",
Cc1sc(NC(=O)CN2CCOCC2)nc1-c1ccc2c(c1)CCN2S(=O)(=O)c1ccccc1,active: 5.62 µM,
CN(Cc1cccc(C(F)(F)F)c1)Cc1nc(-c2cnccn2)no1,inactive,
S=C(NCc1ccccc1)Nc1ccncc1,active: 14.1 µM,
CCOC(=O)c1c(C)n(O)c2ccc(Cl)cc2c1=O,active: 15.8 µM,
O=C(NC(=S)Nc1ccccc1N1CCOCC1)c1ccccc1F,active: 20 µM,
CCCOc1ccc(C(=O)Nc2nc(C)c(Cc3ccc4c(c3)OCO4)s2)cc1,"inconclusive [inhibitor, single point]",
Cc1ccc(-c2csc(NC(=O)CSc3nc4ccccc4c(=O)n3CCCN(C)C)n2)cc1,"inconclusive [inhibitor, single point]",
Cc1ccc(-c2cn(-c3ccccc3F)c(=S)[nH]2)cc1,active: 7.08 µM,
COc1ccc2nc(/C(C#N)=C\c3ccc(Oc4ccc([N+](=O)[O-])cn4)cc3)[nH]c2c1,"inconclusive [inhibitor, single point]",
O=[N+]([O-])c1ccc(S(=O)(=O)NNC(=S)NCCc2ccccc2)cc1,active: 11.2 µM,
O=C(NC(=S)NNC(=O)c1cccs1)c1ccccc1,active: 15.8 µM,
S=c1[nH]nc(-c2ccccn2)n1/N=C/c1cccc(Cl)c1,"inconclusive [inhibitor, single point]",
CC[n+]1c(/C=C/c2ccc(OC(C)=O)c(OC)c2)ccc2ccccc21,inactive,
COc1ccccc1-n1c(-c2ccc(Cl)cc2)c[nH]c1=S,active: 7.08 µM,
CCCCCCCCCn1c2c(c(=N)c3c1CCC3)CCC2,"inconclusive [inhibitor, partial curve]",
CCCCNS(=O)(=O)c1ccc(S(=O)(=O)N2CCC3(CC2)OCCO3)cc1,"inconclusive [activator, single point]",
Cc1cc(SCC(=O)c2ccc(Cl)cc2)nc(=O)[nH]1,"inconclusive [inhibitor, single point]",
CCOc1ccc(-c2cc(NC(=O)c3c(F)cccc3F)c(C(=O)O)s2)cc1,inactive,
O=C(CSc1nnc(-c2ccccc2Cl)o1)Nc1ccc2c(c1)OCCO2,"inconclusive [inhibitor, single point]",

Structure (SMILES),Potency,"activity, negative = inhibition"
COc1cc(/C=N/NC(=O)c2cc(-c3ccccc3)sc2N)cc(OC)c1OC,inactive,
COC(=O)c1cccc(-n2cnnn2)c1,inactive,
CN(C)CCCOC(=O)c1ccc(Br)cc1,inactive,
O=S(=O)(NCC(Nc1ccc(Cl)cc1)c1ccccc1)c1ccccc1 (stereo unspecified),"inconclusive [inhibitor, single point]",
CCn1c(SCC(=O)c2ccccc2)nc2ccccc2c1=O,"inconclusive [activator, partial curve]",
CCOC(=O)c1sc(N2N=C(C)C(N=Nc3cccc(C)c3)C2=O)nc1C (stereo unspecified),"inconclusive [inhibitor, single point]",
COc1ccc(C(=O)NC2CCCCC2)cc1S(=O)(=O)N1CCCC1,inactive,
Cc1ccc(NC(=O)c2ccccc2NS(=O)(=O)c2ccc(Cl)s2)cc1,active: 20 µM,
C=CCn1c(=N)n(CC(=O)c2ccccc2)c2ccccc21,"inconclusive [inhibitor, single point]",
Cc1ccc(N2C(=O)CC(SCC(=O)Nc3ccc(S(N)(=O)=O)cc3)C2=O)cc1 (stereo unspecified),"inconclusive [inhibitor, single point]",
Cc1cccc(NC(=O)c2nc[nH]c2C(=O)Nc2ccccc2[N+](=O)[O-])c1,active: 5.62 µM,
COc1cc(CC(=O)N2CCc3ccccc32)cc(OC)c1OC,"inconclusive [inhibitor, single point]",
C=C(C)C(O)/C=C/c1ccc(OC)cc1 (stereo unspecified),,inactive: 5.73% [at 10 µM]
O=c1c2cc(F)ccc2[nH]c(=S)n1CCCN1CCOCC1,"inconclusive [inhibitor, single point]",
O=C(COc1ccc(F)cc1Br)NCc1ccccn1,"inconclusive [activator, single point]",
Cc1[nH]c2ccccc2c1C(=O)COC(=O)c1c(-c2ccccc2Cl)noc1C,"inconclusive [inhibitor, single point]",
Fc1ccccc1CN(CCN1CCOCC1)C(=S)Nc1ccccc1Cl,"inconclusive [inhibitor, single point]",
COc1cccc(CN2CCNC(=O)C2CC(=O)N(C)CCc2ccccn2)c1OC (stereo unspecified),inactive,
CCOc1ccc(S(=O)(=O)Nc2cc(OC)ccc2OC)cc1,inactive,
O=C(Nc1ccc(CN2CCS(=O)(=O)CC2)cc1)c1ccccc1,inactive,
Cc1ccc(F)c(NC(=S)Nc2cccc3ccccc23)c1,"inconclusive [inhibitor, single point]",
Cn1c(NC(=O)c2cccc(Cn3cc(Cl)cn3)c2)nc2ccccc21,active: 2.82 µM,
CN(C(=S)NC1CCCCC1)C1(c2ccccc2Cl)CCCCC1=O (stereo unspecified),"inconclusive [inhibitor, single point]",
Cc1cc2ccccn2c1C(C[N+](=O)[O-])c1ccc(N(C)C)cc1 (stereo unspecified),"inconclusive [inhibitor, single point]",
O=S1(=O)CCC(S(=O)(=O)N2CCCCCC2)C1 (stereo unspecified),"inconclusive [inhibitor, full curve, poor fit]",
CCC(=O)c1ccc(N2CCN(C(=O)c3ccc(F)cc3)CC2)c(F)c1,"inconclusive [inhibitor, single point]",

Structure (SMILES),Potency,"activity, negative = inhibition"
N#C/C(=C/c1cn(-c2ccccc2)nc1-c1cccc(OCc2ccc(F)cc2)c1)C(=O)NCCCn1ccnc1,active: 11.2 µM,
O=C(COc1ccc(/C=N/NC(=O)c2ccccc2O)cc1)Nc1ccccc1,"inconclusive [inhibitor, single point]",
OCc1cn(-c2ccccc2)nc1-c1ccc(Br)cc1,"inconclusive [activator, single point]",
CCc1cccc(C)c1NC(=S)NCC1CCN(c2ccc(OC)cc2)C1 (stereo unspecified),active: 7.08 µM,
Nc1nc(N)c2cc(Sc3ccc4ccccc4c3)ccc2n1,"inconclusive [inhibitor, single point]",
O=C(CCc1ccccc1)NNC(=S)Nc1ccc(F)cc1,"inconclusive [inhibitor, single point]",
CCOc1ccccc1NC(=S)NCc1ccco1,"inconclusive [inhibitor, single point]",
Cc1ccc(-c2csc(N(CCO)CCCn3c(C(F)(F)F)nc4cc(C(F)(F)F)ccc43)n2)cc1,"inconclusive [inhibitor, single point]",
Cc1cc(C)nc(N2N=C(C(F)(F)F)CC2=O)n1,inactive,
C/C(=N/NC(=O)C(=O)N/N=C(/C)c1ccccc1)c1ccccc1,inactive,
CC(=O)NCc1ccc(C(=O)CSc2nnc(-c3ccncc3)n2Cc2ccccc2)o1,inactive,
Cc1nc2ccc(-c3nc4ccccc4o3)cc2[nH]1,"inconclusive [inhibitor, partial curve]",
COc1cc(NC(=S)N2CCN(c3ccccn3)CC2)cc(OC)c1,"inconclusive [inhibitor, single point]",
O=[N+]([O-])c1ccc2nc(CN3CCCCC3)[nH]c2c1,inactive,
Cn1c(Cc2cccs2)n[nH]c1=S,inactive,
C=CCn1c(-c2c[nH]c3ccccc23)n[nH]c1=S,"inconclusive [inhibitor, single point]",
CC(C)(C)C(=O)NC(=S)NCCc1ccccc1,"inconclusive [inhibitor, partial curve, poor fit]",
C[C@@H]1CC=C[C@H]2[C@H]1C(=O)N(Cc1ccccc1)[C@H]2c1ccc(F)c(Br)c1,"inconclusive [inhibitor, single point]",
CCOC(=O)N1CCC(c2cc(=O)n3[nH]ccc3n2)CC1,inactive,
Cc1ccc(C2CC(=O)Oc3cc(C)c(Cl)c(C)c32)cc1 (stereo unspecified),"inconclusive [inhibitor, single point]",
C/C(=N\Nc1nc(C(C)(C)C)cs1)c1ccc(O)cc1,active: 10 µM,
C=CCn1c(NC(=O)c2ccco2)nc2ccccc21,active: 3.55 µM,
COc1ccc(N2C(=O)CC(Sc3n[nH]c(-c4cccc(C)c4)n3)C2=O)cc1 (stereo unspecified),"inconclusive [inhibitor, partial curve]",
COc1cccc(/C=N/NC(=S)NC2CC3CC2C2C=CCC32)c1O (stereo unspecified),"inconclusive [inhibitor, single point]",
